# The shares of active, inactive and inconclusive entries below differ from those in the screen. Potencies of inconclusive entries are left out as doubtful fits. Active and inactive are the calls of the source. Calls come from the whole dose curve; as a rule, active = well fitted inhibition curve with a large enough effect; inconclusive = small, poorly fitted or top-dose-only effect; inactive = no such curve, though single readings can be large or run the other way.
# System: Zika virus NS2B-NS3 protease (linked construct)
# Assay: Primary screen NINDS Rhodamine qHTS for Zika virus inhibitors (AID 1347160); note: nearly all actives have a fitted effect of over 55% in size
# Conditions: purified NS2B-NS3 protease, Rhodamine110 substrate fluorescence; series mostly up to 57.1 µM; activity change, negative = inhibition: at the top concentration
# Source text: Avindra Nath, Ph.D., National Institute of Neurological Disorders and Stroke (NINDS), Bethesda, MD
# Radhakrishnan Padmanabhan, Ph.D., Georgetown University (GU), Washington D.C.
# Zika Virus causes congenital defects, including microcephaly and is associated with Guillain-Barre syndrome, eningoencephalitis and myelitis in infected adult. […] Using a target-based approach, we hope to establish a screening paradigm to uncover novel, cell-active NS2B-NS3 protease (Zika Virus) specific inhibitors from NCATS' collection of small molecules using qHTS.
# Four assay panel was created to identify potential Zika Virus inhibitors. Namely, (1) GU unlinked NS2B-NS3 AMC tagged protease qHTS, (2) GU unlinked NS2B-NS3 Rhodamine tagged protease qHTS, (3) NINDS linked NS2B-NS3 AMC tagged protease qHTS, (4) NINDS linked NS2B-NS3 Rhodamine tagged protease qHTS. Active compounds were re-acquired and re-screened to confirm inhibition. Inhibitors were further screened against various confirmatory and counterscreens in dose response format.
# Early Translation Branch (ETB)
# National Center for Advancing Translational Sciences (NCATS), Rockville, MD
# National Institute of Health (NIH), Bethesda, Maryland
# For the linked assay, Nath lab (NINDS) provided the purified linked NS2B-NS3 protease which is consists of hydrophilic domain of NS2B linked to the NS3 protease domain by a flexible (-[…]-) linker. Control compound aprotinin is obtained from Thermo Scientific (#78432; Waltham, Massachusetts). Rhodamine110 substrate ([N-Cbz]-Nle-Lys-Arg-Arg-Rhod110-Arg-Arg-Lys-Nle-[N-Cbz]) was purchased from either Genscript or Bachem.
# 1536-well Protease (Rhodamine110 Substrate) Assay:
# Briefly, 3 microL of enzyme (25 nM final concentration), in assay buffer (10 mM Tris-HCl pH 8.0 with 0.01% Tween 20) were dispensed into a 1,536-well solid-bottom black plate (Greiner Bio One, Monroe, NC). Twenty-three nL of compounds (final concentration range 7.28 nM to 114 microM) or control Aprotinin (final concentration range 3.47 nM to 114 microM) were transferred via Wako Pin-tool (Wako Automation, Richmond, VA). Samples were incubated (room temperature, protected from light) for 15 minutes followed by a 1 microL Rhodamine110 substrate addition (1.5 microM final concentration). Plates were then immediately read on a ViewLux High-throughput CCD imager (PerkinElmer, Waltham, MA) equipped with FITC fluorescence optics (480(20) nm excitation, 540(25) nm emission), then incubated (room temperature, protected from light) for 15 minutes (~15% conversion). The change in fluorescence intensity over the 15-minute reaction period was normalized against no-inhibitor and no-enzyme controls and the resulting percent inhibition data were fitted to a 4-parameter Hill equation. Aprotinin was used as intraplate control.
# % is set by controls: 0 for no effect and ±100 for the full control effect; potency is the fitted concentration of half-maximal effect; tags give direction and shape of the fitted curve.
Compound,Potency,"activity change, negative = inhibition",outcome
O=C(Nc1cccc(C(F)(F)F)c1)Nc1cc(S(=O)(=O)NC2CC2)ccc1-c1ccsc1,"inconclusive [inhibitor, single point]",–,–
O=C(c1cc(Cc2n[nH]c(=O)c3ccccc23)ccc1F)N1CCN(C(=O)C2CC2)CC1,–,inactive: -3.97%,–
O=S(=O)(O)c1ccc2cc(N=Nc3cc(S(=O)(=O)O)c4cccnc4c3O)ccc2c1,active: 1.26 µM,–,–
CN(C)c1ccc(-c2nc3ncc(Cl)c(N4CCN(CC(=O)Nc5nccs5)CC4)c3[nH]2)cc1,"inconclusive [inhibitor, partial curve, poor fit]",–,–
COc1cc(Nc2ncc(F)c(Nc3ccc4c(n3)N(COP(=O)(O)O)C(=O)C(C)(C)O4)n2)cc(OC)c1OC,"inconclusive [inhibitor, single point]",–,–
COC(=O)[C@H]1[C@H]2C[C@@H]3c4[nH]c5cc(OC)ccc5c4CCN3C[C@H]2C[C@@H](OC(=O)/C=C/c2cc(OC)c(OC)c(OC)c2)[C@@H]1OC,–,–,inactive [at 15.1 µM]
CC(C)C[C@H](NC(=O)[C@H](Cc1ccccc1)NC(=O)c1cnccn1)B(O)O,–,inactive: 13.3%,–
O=C(CCCCCCC(=O)Nc1ccc([C@H]2O[C@@H](CSc3nc(-c4ccccc4)c(-c4ccccc4)o3)C[C@@H](c3ccc(CO)cc3)O2)cc1)NO,"inconclusive [inhibitor, partial curve]",–,–
CC[C@@]1(O)C(=O)OCc2c1cc1n(c2=O)Cc2cc3c(CN(C)C)c(O)ccc3nc2-1,"inconclusive [inhibitor, full curve]",–,–
Oc1cc(-c2nc(-c3ccccc3)[nH]c2-c2ccncc2)ccc1Cl,–,–,inactive
CN1CCC(COc2cnc(-c3cccc(Cn4nc(-c5cccc(C#N)c5)ccc4=O)c3)nc2)CC1,–,–,inactive
Cc1cnc(Nc2ccc(F)cc2Cl)nc1-c1c[nH]c(C(=O)N[C@H](CO)c2cccc(Cl)c2)c1,"inconclusive [inhibitor, single point]",–,–
Cc1cc(SCc2sc(-c3ccc(C(F)(F)F)cc3)nc2C)ccc1OCC(=O)O,"inconclusive [inhibitor, full curve, poor fit]",–,–
O=C(O)c1ccc(Nc2ncc3c(n2)-c2ccc(Cl)cc2C(c2c(F)cccc2F)=NC3)cc1,"inconclusive [inhibitor, full curve]",–,–
COc1ccc(CN2CCN(C(c3ccc(F)cc3)c3ccc(F)cc3)CC2)c(OC)c1OC,–,–,inactive
N#Cc1c(O)c2c(-c3ccc(-c4ccccc4O)cc3)csc2[nH]c1=O,active: 2.51 µM,–,–
COc1ccccc1[C@H](c1cccc2ccccc12)[C@@](C)(C#N)C(=O)N1CCC(c2cccc(C(F)(F)F)c2)CC1,–,inactive: -7.74%,–
O=C(O)CCNc1cc(N2CCc3ccccc3CC2)nc(-c2ccccn2)n1,"inconclusive [inhibitor, full curve, poor fit]",–,–
O=C(O)C[C@H](O)C[C@H](O)/C=C/c1c(C2CC2)nc2ccccc2c1-c1ccc(F)cc1,–,inactive: 79.6%,–
CN(C)CCCOc1nn(Cc2ccccc2)c2ccccc12,–,inactive: -9.4%,–

# Reference: PubChem BioAssay (NCATS)
